Data as given in a collection of fitness landscapes (doi:10.1038/s41467-024-54723-y).
The full ranking holds about 18,000 sequences; the median of “TetR repression strength (sort-seq, GFP reporter)” is about 0.23, and the highest 2% start at about 0.68. The list shows a part of the results.

target: TetR (class B, Tn10) (UniProt P04483); assay: TetR repression strength (sort-seq, GFP reporter) (relative to tetO2 = 1); higher = stronger repression; conditions: E. coli
Method in brief: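 Escherichia coli SIG10-MAX cells carried a low-copy plasmid library in which eight operator positions were randomized between a constitutive promoter and sfGFP, and TetR was expressed constitutively. After 5 h of growth at 37 °C in LB with 50 µg/mL chloramphenicol, 10^6 cells were FACS-sorted into 13 fluorescence bins, and each bin was Illumina-sequenced. Repression strength was the top bin index plus one minus the read-weighted mean bin, divided by the value for the unaltered operator. Across three independent transformations, only library members with ≥30 reads in every replicate and a CV ≤0.5 were averaged.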

UniProt P04483, sequence (P04483 whole entry): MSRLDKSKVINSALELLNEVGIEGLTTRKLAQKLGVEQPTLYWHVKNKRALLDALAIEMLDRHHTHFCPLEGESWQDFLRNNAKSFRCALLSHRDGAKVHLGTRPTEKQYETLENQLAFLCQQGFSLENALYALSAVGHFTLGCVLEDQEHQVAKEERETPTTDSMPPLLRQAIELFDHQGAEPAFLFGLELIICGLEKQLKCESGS

Row | Sequence | TetR repression strength
1 | TCCCGAATAGTACTTGAGA | 0.354
2 | TCCCCATAAGTGAGTGAGA | 0.4
3 | TCCCGGATAGTTGATGAGA | 0.285
4 | TCCCAGGAAGTCCTGGAGA | 0.268
5 | TCCCGGGAAGTGGGAGAGA | 0.274
6 | TCCCAGCTAGTGATAGAGA | 0.626
7 | TCCCGTCGAGTGGAGGAGA | 0.193
8 | TCCCTTCTAGTCTAAGAGA | 0.306
9 | TCCCGAGCAGTAACTGAGA | 0.149
10 | TCCCTAGTAGTGTCTGAGA | 0.265
11 | TCCCCATGAGTGCTCGAGA | 0.394
12 | TCCCGCATAGTATGTGAGA | 0.222
13 | TCCCGCACAGTTGGGGAGA | 0.224
14 | TCCCCCATAGTTTATGAGA | 0.288
15 | TCCCTCAAAGTGGCTGAGA | 0.301
16 | TCCCTGTCAGTGTGAGAGA | 0.0482
17 | TCCCCGCCAGTGGATGAGA | 0.377
18 | TCCCACACAGTGCAGGAGA | 0.236
19 | TCCCCTGTAGTCACAGAGA | 0.104
20 | TCCCATCCAGTTGCCGAGA | 0.298
21 | TCCCAAGCAGTTGTGGAGA | 0.196
22 | TCCCTGCAAGTTACCGAGA | 0.263
23 | TCCCTTTCAGTCGATGAGA | 0.473
24 | TCCCGAAAAGTTTAAGAGA | 0.31
25 | TCCCGGCTAGTACAAGAGA | 0.39
26 | TCCCTCGTAGTTCGAGAGA | 0.267

Row | Sequence | TetR repression strength
27 | TCCCTAGTAGTCGTAGAGA | 0.272
28 | TCCCTAAGAGTCTCGGAGA | 0.0925
29 | TCCCGTGCAGTAACAGAGA | 0
30 | TCCCGCCGAGTCTGAGAGA | 0.111
31 | TCCCCCACAGTGACTGAGA | 0.223
32 | TCCCACTCAGTTGAGGAGA | 0.0364
33 | TCCCGCTGAGTCATGGAGA | 0.191
34 | TCCCGACGAGTGCAAGAGA | 0.352
35 | TCCCGGGAAGTCTGGGAGA | 1.24
36 | TCCCGTCAAGTGTCCGAGA | 0.279
37 | TCCCCCGTAGTGCGCGAGA | 0.0565
38 | TCCCTAATAGTAAAGGAGA | 0.293
39 | TCCCACGTAGTAGCGGAGA | 0.125
40 | TCCCGCAGAGTGGATGAGA | 0.259
41 | TCCCCCCGAGTACAAGAGA | 0.207
42 | TCCCTATCAGTGGGCGAGA | 0.541
43 | TCCCTAAGAGTCTTCGAGA | 0.565
44 | TCCCTCAGAGTCGGGGAGA | 0.277
45 | TCCCGAAGAGTATAAGAGA | 0.222
46 | TCCCCAGGAGTTGCGGAGA | 0.173
47 | TCCCTGTAAGTGCCGGAGA | 0.312
48 | TCCCGTGGAGTGGCGGAGA | 0.247
49 | TCCCTATGAGTGGGGGAGA | 0.147
50 | TCCCGATCAGTAGACGAGA | 0.237
51 | TCCCATGGAGTATGAGAGA | 0.417
52 | TCCCGGACAGTTCGGGAGA | 0.338

Row | Sequence | TetR repression strength
53 | TCCCCGAGAGTGAAAGAGA | 0.289
54 | TCCCAGGTAGTCACGGAGA | 0.424
55 | TCCCAAGAAGTGTTGGAGA | 0.421
56 | TCCCTCACAGTGTCCGAGA | 0.308
57 | TCCCTACCAGTGAAAGAGA | 0.415
58 | TCCCTTATAGTATCAGAGA | 0.186
59 | TCCCGGTAAGTACGTGAGA | 0.217
60 | TCCCCATGAGTTGTTGAGA | 0.306
61 | TCCCATACAGTGGTGGAGA | 0.171
62 | TCCCATGTAGTGATAGAGA | 0.265
63 | TCCCGGCAAGTTTTTGAGA | 0.238
64 | TCCCCAGTAGTCTGAGAGA | 0.0196
65 | TCCCACGTAGTGGCGGAGA | 0.163
66 | TCCCAAACAGTGAATGAGA | 0.232
67 | TCCCAACTAGTCGTCGAGA | 0.214
68 | TCCCTATCAGTGAGAGAGA | 0.948
69 | TCCCCGCGAGTAGCAGAGA | 0.13
70 | TCCCGCTAAGTTAGGGAGA | 0.286
71 | TCCCAACGAGTGTCTGAGA | 0.314
72 | TCCCAAGGAGTGTTTGAGA | 0.227
73 | TCCCATTGAGTGGTTGAGA | 0.11
74 | TCCCTCTGAGTGCCCGAGA | 0.261
75 | TCCCTATCAGTGCATGAGA | 0.577
76 | TCCCCCGAAGTCAGAGAGA | 0.179
77 | TCCCGTTAAGTGACAGAGA | 0.328
78 | TCCCTGCCAGTGTGGGAGA | 0.127

Row | Sequence | TetR repression strength
79 | TCCCGACCAGTTTATGAGA | 0.311
80 | TCCCAAGGAGTATTAGAGA | 0.217
81 | TCCCGGTGAGTGCTGGAGA | 0.305
82 | TCCCATTGAGTTGATGAGA | 0.304
83 | TCCCGGCGAGTGGATGAGA | 0.274
84 | TCCCGCATAGTTTGCGAGA | 0.0306
85 | TCCCGTCTAGTGGAGGAGA | 0.155
86 | TCCCGAGCAGTGATGGAGA | 0.371
87 | TCCCCGTGAGTAACCGAGA | 0.104
88 | TCCCTAGAAGTTATGGAGA | 0.315
89 | TCCCCGGCAGTATAGGAGA | 0.242
90 | TCCCTGGTAGTGGCTGAGA | 0.365
91 | TCCCTGAGAGTCGGGGAGA | 0.0822
92 | TCCCTCGCAGTCAAAGAGA | 0.164
93 | TCCCCGCGAGTGGGTGAGA | 0.109
94 | TCCCCTACAGTTTCTGAGA | 0.351
95 | TCCCGGACAGTGCCGGAGA | 0.167
96 | TCCCGCCCAGTCTTGGAGA | 0.242
97 | TCCCGTGGAGTTCTCGAGA | 0.13
98 | TCCCTAGTAGTAACTGAGA | 0.259
99 | TCCCGAGGAGTGCCGGAGA | 0.195
100 | TCCCCAATAGTGTTTGAGA | 0.311
101 | TCCCGCATAGTTCTCGAGA | 0.242
102 | TCCCGAAGAGTTGAGGAGA | 0.0868
103 | TCCCATCAAGTAGGTGAGA | 0.145
104 | TCCCGCGGAGTCGATGAGA | 0.207

Row | Sequence | TetR repression strength
105 | TCCCGGTCAGTGAAGGAGA | 0.236
106 | TCCCGTCTAGTTGAGGAGA | 0.24
107 | TCCCCGCAAGTTTTCGAGA | 0.306
108 | TCCCTTGGAGTCTGGGAGA | 0.224
109 | TCCCGGTGAGTAGGAGAGA | 0.109
110 | TCCCCCGAAGTATGCGAGA | 0.215
111 | TCCCACCTAGTGAGAGAGA | 0.396
112 | TCCCGCTGAGTCAATGAGA | 0.333
113 | TCCCTTCCAGTGATAGAGA | 0.668
114 | TCCCTGGGAGTCTAAGAGA | 0.0478
115 | TCCCTAATAGTTGCCGAGA | 0.275
116 | TCCCTGGGAGTAGGGGAGA | 0.287
117 | TCCCGTAGAGTTCTAGAGA | 0.202
118 | TCCCTGTTAGTGTAGGAGA | 0.153
119 | TCCCCATTAGTGCAGGAGA | 0.302
120 | TCCCAATGAGTTTGGGAGA | 0.256
121 | TCCCTACGAGTAGTGGAGA | 0.192
122 | TCCCCCACAGTCACAGAGA | 0.27
123 | TCCCTGTGAGTGCTGGAGA | 0.309
124 | TCCCGACAAGTGGAGGAGA | 0.113
125 | TCCCGCGTAGTACGGGAGA | 0.334
126 | TCCCTGGAAGTGAGGGAGA | 0.0391
127 | TCCCTTTAAGTGTCGGAGA | 0.319
128 | TCCCGGGAAGTTGGCGAGA | 0.238
129 | TCCCGGCTAGTACTCGAGA | 0.0814
130 | TCCCTTACAGTGGTCGAGA | 0.266
